This note sets out measurements from PMC4336329 (PLoS ONE, 2015).

Screen size: about 310,000 compounds; about 2,200 (0.71%) showed an effect of 50% or more. The effect is printed as a negative number. The list shows a part of the results.

human ether-à-go-go-related gene (hERG) potassium channel, sequence (Q12809 whole entry, looked up): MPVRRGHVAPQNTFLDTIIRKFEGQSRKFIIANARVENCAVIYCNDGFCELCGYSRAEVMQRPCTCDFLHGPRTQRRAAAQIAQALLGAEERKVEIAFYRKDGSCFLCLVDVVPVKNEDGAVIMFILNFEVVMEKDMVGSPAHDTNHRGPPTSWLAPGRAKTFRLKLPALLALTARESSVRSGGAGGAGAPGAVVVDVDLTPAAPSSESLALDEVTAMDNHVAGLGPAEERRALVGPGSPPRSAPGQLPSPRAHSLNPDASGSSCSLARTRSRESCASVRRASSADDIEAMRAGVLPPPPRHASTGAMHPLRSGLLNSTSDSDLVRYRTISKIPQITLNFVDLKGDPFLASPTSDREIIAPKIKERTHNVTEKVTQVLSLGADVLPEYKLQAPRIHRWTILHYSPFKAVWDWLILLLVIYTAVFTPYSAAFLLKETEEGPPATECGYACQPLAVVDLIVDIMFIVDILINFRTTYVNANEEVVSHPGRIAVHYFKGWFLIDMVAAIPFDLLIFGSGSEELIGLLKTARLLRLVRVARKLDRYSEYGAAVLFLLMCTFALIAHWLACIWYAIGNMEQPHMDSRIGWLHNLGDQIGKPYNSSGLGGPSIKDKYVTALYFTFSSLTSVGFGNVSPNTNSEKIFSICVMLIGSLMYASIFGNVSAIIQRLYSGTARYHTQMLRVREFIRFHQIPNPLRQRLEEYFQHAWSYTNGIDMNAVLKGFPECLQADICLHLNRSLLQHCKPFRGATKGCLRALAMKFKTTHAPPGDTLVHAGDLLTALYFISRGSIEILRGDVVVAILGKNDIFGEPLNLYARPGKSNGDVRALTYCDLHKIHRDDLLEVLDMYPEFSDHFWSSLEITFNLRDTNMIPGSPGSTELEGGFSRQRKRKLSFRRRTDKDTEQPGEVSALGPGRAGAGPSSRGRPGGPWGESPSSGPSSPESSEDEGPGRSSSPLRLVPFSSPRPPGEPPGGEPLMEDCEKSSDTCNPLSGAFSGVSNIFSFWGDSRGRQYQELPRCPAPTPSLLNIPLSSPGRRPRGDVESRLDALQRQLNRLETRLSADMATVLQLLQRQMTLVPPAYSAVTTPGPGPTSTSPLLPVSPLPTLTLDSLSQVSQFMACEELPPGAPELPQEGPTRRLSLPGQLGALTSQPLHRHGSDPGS

This assay addresses human ether-à-go-go-related gene (hERG) potassium channel (human, UniProt Q12809). Kind of assay: primary screen, population patch clamp on CHO cells stably expressing hERG.
As for `COc1ccccc1C1=CC(=O)C[C@H](c2ccc(F)cc2)C1`, the “hERG current change (%, negative = inhibition) at 1uM” value is 7.06%.

As for `CCOC(=O)c1oc2ccccc2c1NC(=O)COc1cccc(OC)c1`, the “hERG current change (%, negative = inhibition) at 1uM” value is listed as 14.2%.

For the molecule `CC(Oc1ccc2c(c1)oc(=O)c1ccccc12)C(=O)NCCCN1CCOCC1` (centres unmarked), the “hERG current change (%, negative = inhibition) at 1uM” value was found to be 5.72%.

As to `CCOC(=O)N1CCN(C2=CC(=O)OC23CCCCC3)CC1`, the “hERG current change (%, negative = inhibition) at 1uM” value came to 6.32%.

As for `COc1ccc(CN(C)CC(=O)Nc2ccc(SC(F)F)cc2)cc1OC`, the “hERG current change (%, negative = inhibition) at 1uM” value is given as -49.3%.

For `COC(=O)C1=C(C)N(CCCC(=O)O)C(=O)NC1c1cc2c(cc1[N+](=O)[O-])OCO2` (centres unmarked), the “hERG current change (%, negative = inhibition) at 1uM” value was 13.5%.

As to `Cc1ccc(-c2nc3c(=O)n(-c4ccccc4)c4c(c(=O)n(C)c(=O)n4C)c3o2)cc1`, the “hERG current change (%, negative = inhibition) at 1uM” value worked out at 12.1%.

Turning to `COc1ccc(CC(=O)N/N=C/c2ccc(-c3cccc(C(=O)O)c3)o2)cc1OC`, the “hERG current change (%, negative = inhibition) at 1uM” value turned out to be 1.51%.

For the molecule `CCOc1ccc(CCNC(=O)CCCN2C(=O)c3ccccc3C2=O)cc1OCC`, the “hERG current change (%, negative = inhibition) at 1uM” value is 9.71%.

With `CCNC(=O)c1c(NC(C)=O)sc2c1CCCC2`, the “hERG current change (%, negative = inhibition) at 1uM” value was 2.6%.

`CCCN1C(=O)/C(=C/c2c(N3CCNC(=O)C3CC(=O)OCC)nc3c(C)cccn3c2=O)SC1=S` (centres unmarked): the “hERG current change (%, negative = inhibition) at 1uM” value stood at 11%.

Turning to `CCC(=O)c1ccc(OCC(=O)N2CCCC2)c(OC)c1`, the “hERG current change (%, negative = inhibition) at 1uM” value is recorded as 6.29%.

On to `COc1cc(/C=N/NC(=O)c2cccnc2)ccc1OCC(=O)Nc1ccccc1Cl`, for which the “hERG current change (%, negative = inhibition) at 1uM” value amounted to 9.01%.

As to `Cc1cc(=O)oc2cc(NC(=O)c3cccc(S(C)(=O)=O)c3)ccc12`, the “hERG current change (%, negative = inhibition) at 1uM” value turned out to be 12.8%.

`NS(=O)(=O)c1ccc(CCNc2nc3c(-c4cccc(F)c4)nnn3c3ccccc23)cc1`: the “hERG current change (%, negative = inhibition) at 1uM” value is on record as 17.3%.

For `O=C(/C=C/c1cccs1)N1CCCCC1`, the “hERG current change (%, negative = inhibition) at 1uM” value was 15.7%.

As for `C=CCn1c(SCC#N)nc2c(c1=O)C(C)(C)Cc1ccccc1-2`, the “hERG current change (%, negative = inhibition) at 1uM” value is recorded as 9.15%.

`COc1cc(C(=O)N2CCN(C/C=C/c3ccccc3)CC2)cc(OC)c1OC`: the “hERG current change (%, negative = inhibition) at 1uM” value is recorded as -2.2%.

`O=S(=O)(NCc1cccnc1)c1cccc2nsnc12`: the “hERG current change (%, negative = inhibition) at 1uM” value is -2.07%.

Turning to `O=C(Nc1nc(-c2ccc3c(c2)OCO3)cs1)c1ccncc1`, the “hERG current change (%, negative = inhibition) at 1uM” value is given as -0.919%.

Consider `CCCC(=O)Nc1c(-c2ccccc2)c(=O)c(C)nn1-c1ccccc1`, for which the “hERG current change (%, negative = inhibition) at 1uM” value is given as 8.77%.

As for `C=CC1C(N2CCOCC2)C(C)(C)S1(=O)=O` (centres unmarked), the “hERG current change (%, negative = inhibition) at 1uM” value is -1.66%.

Consider `CCCCc1cc(=O)oc2cc(OCc3nn[nH]n3)ccc12`, for which the “hERG current change (%, negative = inhibition) at 1uM” value came out at 9.8%.

Take `Cc1ccc[n+](-c2[nH]c(=O)sc2/C=N/N=C(\[O-])CCn2c3ccccc3c3ccccc32)c1`: the “hERG current change (%, negative = inhibition) at 1uM” value was determined as 12.8%.

Consider `O=C(NCc1ccco1)C1CCN(C(=O)c2cc3sccc3n2Cc2ccc(Cl)cc2)CC1`, for which the “hERG current change (%, negative = inhibition) at 1uM” value is recorded as -23.8%.

`O=C(CCc1nc2ccccc2c(=O)[nH]1)N1CCN(S(=O)(=O)c2ccccc2Br)CC1`: the “hERG current change (%, negative = inhibition) at 1uM” value is on record as -18.1%.

In the case of `CC(C)OP(=O)(OC(C)C)C(NCc1ccccc1)c1ccccc1.Cl` (centres unmarked), the “hERG current change (%, negative = inhibition) at 1uM” value is -2.96%.

With `O=c1c2ccccc2nc(SCc2ccc([N+](=O)[O-])cc2)n1-c1ccccc1`, the “hERG current change (%, negative = inhibition) at 1uM” value is given as 8.57%.

With `COc1ccc(Cc2nnc3n2N=C(c2cc4ccccc4o2)CS3)cc1OC`, the “hERG current change (%, negative = inhibition) at 1uM” value is -8.27%.

Consider `CCN(CC(=O)NCc1ccncc1)S(=O)(=O)c1cc(Cl)ccc1Cl`, for which the “hERG current change (%, negative = inhibition) at 1uM” value came out at 1.73%.

Consider `Cc1cc(C)c(N=C2SCC(=O)N2Cc2ccco2)c(C)c1`, for which the “hERG current change (%, negative = inhibition) at 1uM” value is 5.9%.

Take `COc1ccc(N(CC(=O)Nc2cccc3ccccc23)S(C)(=O)=O)c(OC)c1`: the “hERG current change (%, negative = inhibition) at 1uM” value was determined as 8.31%.

In the case of `COC(=O)c1ccc(Cn2cc(C(F)(F)F)cc([N+](=O)[O-])c2=O)cc1`, the “hERG current change (%, negative = inhibition) at 1uM” value is 11.2%.

For the molecule `c1ccc(-c2csc(-n3cnnn3)n2)cc1`, the “hERG current change (%, negative = inhibition) at 1uM” value is listed as -2.18%.

Take `CCOc1ccc(/C=N/NC(=O)c2cc3ccccc3cc2OC)cc1`: the “hERG current change (%, negative = inhibition) at 1uM” value was 5.44%.

On to `Cc1cc(C)n(C(C)CNS(=O)(=O)c2ccc(Cl)cc2)n1` (centres unmarked), for which the “hERG current change (%, negative = inhibition) at 1uM” value amounted to 10.9%.

With `O=C(Nc1c(-c2ccc(F)cc2)nc2ccccn12)c1ccc(F)cc1`, the “hERG current change (%, negative = inhibition) at 1uM” value is on record as -4.64%.

In the case of `CCC(=O)Nc1nc(C)c(C(=O)NC2CCCCC2)s1`, the “hERG current change (%, negative = inhibition) at 1uM” value is 8.31%.

Regarding `CCC(NC(=O)c1ccncc1)c1ccccc1` (centres unmarked), the “hERG current change (%, negative = inhibition) at 1uM” value was determined as 7.44%.

For `COc1cc(/C=C(\NC(=O)c2ccccc2)C(=O)NC(C(=O)O)c2ccccc2)cc(OC)c1OC` (centres unmarked), the “hERG current change (%, negative = inhibition) at 1uM” value was 6.11%.

Turning to `COc1cc(OC)c(OC)cc1CNCCSc1nnnn1C.Cl`, the “hERG current change (%, negative = inhibition) at 1uM” value was determined as 7.84%.

With `C[n+]1cc(-c2ccccc2)n2c1CCCCC2.[I-]`, the “hERG current change (%, negative = inhibition) at 1uM” value is on record as 4.28%.

In the case of `O=C(O/N=C1/CCCc2occc21)c1ccc(Cl)cc1Cl`, the “hERG current change (%, negative = inhibition) at 1uM” value was determined as 8.54%.

Take `COc1ccc(/C=N/NC(=O)c2ccc(NC(=O)c3ccccc3Br)cc2)cc1`: the “hERG current change (%, negative = inhibition) at 1uM” value was determined as 21.5%.

Regarding `CC(CC(=O)NC1CCCCC1)S(=O)(=O)c1ccc2c(c1)NC(=O)CO2` (centres unmarked), the “hERG current change (%, negative = inhibition) at 1uM” value came out at 12.7%.

Turning to `CCOc1cccc(OCCNC2CCCC2)c1.O=C(O)C(=O)O`, the “hERG current change (%, negative = inhibition) at 1uM” value was found to be 11.2%.

Take `CCN(CC)CCCNC(=S)N(CCCO)Cc1cc2cc3c(cc2[nH]c1=O)OCO3`: the “hERG current change (%, negative = inhibition) at 1uM” value is listed as 16.4%.

For `O=C(COC(=O)/C=C/c1ccc([N+](=O)[O-])cc1)NCc1ccc2c(c1)OCO2`, the “hERG current change (%, negative = inhibition) at 1uM” value was 17%.

Consider `CCCC(=O)Nc1ccccc1Sc1ncnc2scc(-c3ccccc3)c12`, for which the “hERG current change (%, negative = inhibition) at 1uM” value was determined as 9.6%.

On to `Cc1cc(=O)[nH]c(SCc2ccccc2)n1`, for which the “hERG current change (%, negative = inhibition) at 1uM” value is 16.9%.

For the molecule `COc1ccc(-c2cc(=O)oc3c(O)c(O)ccc23)cc1`, the “hERG current change (%, negative = inhibition) at 1uM” value is reported as 7.35%.

Take `C/C=C/C(=O)OCC(=O)Nc1cc([N+](=O)[O-])ccc1Cl`: the “hERG current change (%, negative = inhibition) at 1uM” value turned out to be 0.866%.

Turning to `O=C(COc1ccccc1)Nc1ccncc1`, the “hERG current change (%, negative = inhibition) at 1uM” value is on record as 6.32%.

As to `C[n+]1ccccc1/C=C/c1ccccc1Cl.[I-]`, the “hERG current change (%, negative = inhibition) at 1uM” value was 16.5%.

Take `CCOC(=O)C1=C(N)N(c2ccc(C)cc2)C2=C(C(=O)CCC2)C1c1cccs1` (centres unmarked): the “hERG current change (%, negative = inhibition) at 1uM” value is recorded as 4.51%.

Regarding `O=[N+]([O-])c1ccc(/C=[N+](\[O-])[C@@H]2CCCC[C@@H]2/[N+]([O-])=C/c2ccc([N+](=O)[O-])o2)o1`, the “hERG current change (%, negative = inhibition) at 1uM” value was -3.05%.
